Data reported in ChEMBL document CHEMBL4888484, “Replenishing the malaria drug discovery pipeline: Screening and hit evaluation of the MMV Hit Generation Library 1 (HGL1) against asexual blood stage Plasmodium falciparum ,using a nano luciferase reporter read-out” (2022).
The campaign covered roughly 150,000 compounds. About 540 (0.36%) showed an effect of 50% or more. The list shows a part of the results.

Tested on: Plasmodium falciparum
Assay: Primary screen in NF54 nanoGlo assay, in single point, at 2uM, 72h; a lower Z score goes with more inhibition
Type: functional, Erythrocyte
Settings: timepoint 72 hour

Structure (SMILES) | % Inhibition | Z score
O=C(C#Cc1ccc2c(c1)OCO2)NC(c1ccccc1)c1ccccc1 | 0% | -0.01
O=C1N(Cc2ccc(F)cc2)CCC[C@@]1(O)CN1CCCO1 | -5% | 0.85
O=C(Nc1ccc(OC(F)(F)F)cc1)C1CNC1 | -12% | 1.42
CCN(Cc1nn(-c2ccc(F)cc2)c2c1CN(Cc1ccc(F)cc1)CC2)C(=O)c1cccc(Cl)c1 | 9% | -1.17
COc1ccc(-c2nc3ccc(C(=O)NCc4ccccc4)cc3nc2-c2ccc(OC)cc2)cc1 | 1% | -0.15
Cc1cc(NC(=O)c2ccc(C)s2)no1 | -6% | 0.89
Cc1csc([C@H](C)N(C)C(=O)c2ccccc2-c2nnn[nH]2)n1 | -6% | 0.96
CCO[C@H]1CN(Cc2cc3ccccc3s2)C[C@@H]1O | -4% | 0.55
CC[C@H](O)Cn1nc(-c2csc(C)n2)nc1COC | 15% | -1.96
COC(=O)CC[C@]1(C(F)(F)F)N=C(C(C)C)C(=O)O1 | -8% | 0.7
O[C@H]1CCN(c2cc(C(F)(F)F)nc3c(F)cc(Br)cc23)C1 | -10% | 1.02
COCCn1cncc1CN1CCCC2(CCOCC2)C1 | -12% | 2.34
C[C@@H](c1ccc(N2CCCS2(=O)=O)cc1)N(C)Cc1cn(C(C)(C)C)nn1 | 1% | -0.14
O=C(Cn1c2c(c(=O)n3nc(-c4ccccc4)nc13)CCC2)Nc1cccc(F)c1 | -3% | 0.32
COc1nnc(NC(=O)N2CCC[C@H]2c2nc(C)cs2)s1 | -10% | 2.07
Cc1ccc(-c2cc(-c3c(O)nc4ccc(C)cc4c3-c3ccccc3)nc3ccccc23)cc1 | -37% | 4.38
Cc1nnc(-c2coc(S(=O)(=O)N3CCN(C)CC3)c2)o1 | -12% | 1.57
NS(=O)(=O)CCN1CCN(C(=O)C2CC2C2CCCCC2)CC1 (stereo not drawn) | -47% | 5.46
Cc1ccc(C(=O)N2CC[C@H](N(C)C)[C@H](CCCO)C2)c(O)c1 | -10% | 1.01
CCn1ncc(C)c1NC(=O)N1CCO[C@H](C(=O)OC)C1 | -2% | 0.25
CCc1cnc([C@H](C)NCc2nnc(C)o2)s1 | 5% | -0.62

Structure (SMILES) | % Inhibition | Z score
N#Cc1cccnc1N1CCn2cncc2C1 | -10% | 0.89
COC1(OC)CCOC[C@@H]1NCc1ccc(OC(F)F)cc1 | 1% | -0.21
Cn1nccc1-c1cncc(CNC(=O)Cn2nnc3ccccc32)c1 | 25% | -3.33
O=C(Cc1cc(Cl)ccc1Cl)NCC1(O)CCOCC1 | -4% | 0.44
C[C@H](N)c1ccc(NC(=O)c2c(C(F)F)nc3n2CCCC3)cc1 | -5% | 0.58
CN1C(=O)CCCC[C@H]1C(=O)N1CCN(Cc2ccc3c(c2)OCO3)CC1 | -1% | 0.19
NC(=O)c1c(F)cccc1N1CCC(OCC2CC2)CC1 | -1% | 0.22
O=C(CN(Cc1cccc(O)c1)C1CCC(O)CC1)Nc1ccc(Br)cc1 (stereo not drawn) | 1% | -0.12
CCN(C)c1ccc(CN[C@H]2CCCOc3c(F)cccc32)cn1 | -1% | 0.16
CC(C)[C@H]1N(C(=O)N2CCOCC2)CCN1S(=O)(=O)c1ccc(F)cc1 | 1% | -0.14
O=C(Nc1ccnn1C1CCCCC1)c1n[nH]c2ccccc12 | -19% | 2.51
Cc1cnc(CNc2ccc(S(=O)(=O)CCO)cc2C)o1 | 9% | -0.92
CN(Cc1ncc[nH]1)C(=O)Nc1cc(C(=O)N2CCCCC2)ccc1Cl | 3% | -0.47
COc1ccc2c(N3CC4(CCC4)[C@H]3c3ccncc3)ncnc2c1F | -8% | 1.26
CCN1CCN(C[C@]2(O)CCCN(CC3CC3)C2=O)CC1 | 1% | -0.08
CNS(=O)(=O)CC(=O)N[C@H](c1c(F)cccc1F)C(F)(F)F | -2% | 0.31
Cc1ccc(CN2CCC[C@H](C(=O)Nc3nncs3)C2)cc1 | -4% | 0.33
CCOC1CC(NC(=O)CCc2nc(C3CC3)no2)C12CCCCC2 (stereo not drawn) | -4% | 0.5
CS(=O)(=O)Cc1ccc(-c2ccc3c(c2)OCO3)nc1 | -8% | 1.36
CCN(CC)S(=O)(=O)c1ccc(Oc2ccc(C(=O)c3ccc(F)cc3)cc2)nc1 | -3% | 0.45
COc1ccc(NCc2ccc(C)o2)cn1 | -13% | 1.5

Structure (SMILES) | % Inhibition | Z score
CCC[C@H](C)N1CC2(CCN(C(=O)Cn3cccnc3=O)CC2)OC1=O | -1% | 0.15
Cc1nc(CC[C@H]2CCN(C(=O)c3noc(C)c3COc3ccccc3)C2)no1 | 1% | -0.2
O=C(Nc1ccccc1C(F)(F)F)N1CCN(c2nc3cc(F)ccc3n3cccc23)CC1 | 15% | -2.72
FC1(F)CN[C@H](c2noc(C3CC3)n2)C1 | -5% | 0.94
Cn1ncc(C2CC2)c1CNC(=O)N[C@H]1C[C@@H](Oc2ccccc2)C1(C)C | -6% | 0.94
CCOC(=O)c1c(C)c(CCC(=O)NCc2ccccc2Cl)n(C)c1C | 2% | -0.4
C[C@H]1CCCCN1CCC1CCN(C(=O)Nc2ccncc2F)CC1 | 3% | -0.45
O=C1CN(CC2=Nc3ccccc3S(=O)(=O)N2)CCN1 | -8% | 0.82
CCCC(=O)N1CCc2nc(COC)sc2C1 | -14% | 1.87
O=C(Nc1ccc(OCC(F)(F)C(F)F)nc1)[C@@H]1COCCO1 | -14% | 2.05
Cc1ccc(C(=O)N2CCC(N3C(=O)N[C@@H](CC(C)(C)C)C3=O)CC2)cc1 | -22% | 2.39
CC1NCCN(S(=O)(=O)c2ccc3c(c2)OCCCO3)C1C (stereo not drawn) | -6% | 0.57
Cc1ccc(C#N)c(NCc2cc3n(n2)CCN(C2CCCCC2)C3)n1 | 9% | -1.57
CN(C(=O)Cn1cc(S(=O)(=O)Cc2ccccc2)c2ccccc21)C1CCCCC1 | -10% | 1.57
CCC[C@H](C)CS(=O)(=O)NC(=O)Cc1nc(C)sc1C | 3% | -0.41
O=C(N[C@H]1CC[C@H](Oc2ncc(F)cn2)CC1)c1cccc(F)c1 | -5% | 0.98
COc1ccc(NC(=O)Cn2c(=O)n(CCc3cccs3)c(=O)c3ccccc32)cc1Cl | 38% | -4.27
c1ccc(-n2nnc(-c3noc(-c4ccccn4)n3)c2-c2ccncc2)cc1 | -27% | 5.29
CC(C)C1CCCN(C(=O)COC2CCCCC2C)CC1 (stereo not drawn) | 11% | -1.33
CCn1ccnc1CNc1cc(C2CCCCCC2)[nH]n1 | -1% | 0.04
Cc1nc(CC(=O)N2CCOC[C@H]2C(=O)O)cs1 | -9% | 1.37

Structure (SMILES) | % Inhibition | Z score
CN1CCC(C(=O)N2CCCC2c2cccc(F)c2)CC1=O (stereo not drawn) | -1% | 0.21
Cc1ccc(N2CCCN(Cc3cc(F)ccc3Cl)C2=O)c(NC(=O)Nc2cccc(Cl)c2)c1 | 2% | -0.18
Oc1[nH]nc(-c2ccccc2)c1C(c1ccc(Br)cc1)c1c(-c2ccccc2)n[nH]c1O | -12% | 2.22
O=C(NCc1noc(-c2ccccc2)n1)C1(N2CCOCC2)CCCCC1 | 16% | -2.05
O=C(NCc1ccc2nsnc2c1)c1cc(=O)n(-c2ccccc2)[nH]1 | -9% | 1.64
CCn1nc(C(=O)N2CCc3c(ncn3C)C2)c(=O)c2ccccc21 | -2% | 0.49
CCC(=O)Nc1ccc2c(c1)CN(C(=O)c1ccc(OC)cc1)[C@H](C(=O)N1CCCC1)C2 | -8% | 1.24
O=C(Nc1ccc(F)cc1Cl)[C@@H]1CCCN1c1ncnc2sccc12 | -4% | 0.62
COc1cc2cc(CNCCO)c(=O)n(CC3CCCCC3)c2cc1OC | -15% | 2.9
CN1CCO[C@H](C(=O)NC(C)(C)COc2ncc(Cl)cc2Cl)C1 | -9% | 1.72
O=C(NCCN1CCCC1)[C@H]1CCCN(c2cnc3nccnc3c2)C1 | -1% | 0.13
O=C1C[C@@H](c2cccc3nsnc23)c2cc3cn[nH]c3cc2N1 | -2% | 0.38
CC1(C)[C@H](Cc2cc(CCO)on2)C[C@@H]1NCc1ccccc1F | 33% | -3.72
N#Cc1cccc(NC(=O)N2CCC(c3cc4n(n3)CCCNC4=O)CC2)c1 | -16% | 2.92
NC(=O)c1ccc(C(=O)N(C2CCC2)C2CCC2)s1 | 1% | -0.19
CC[C@H]1CCCCN1S(=O)(=O)c1cc(-c2nc(-c3ccccc3)no2)sc1C | -4% | 0.44
CCN1C(=O)C[C@H](C(=O)NCc2cc(O)ccc2Cl)[C@H]1c1nccn1C | 1% | -0.13
N#Cc1ccc(F)c(CNc2ccn(-c3ncccc3C(F)(F)F)n2)c1 | -11% | 1.09
CS(=O)(=O)N1CCC(C(=O)Nc2cnn(Cc3c(F)cc(F)c(F)c3F)c2)CC1 | 36% | -5.27
c1ccc(-c2noc([C@H]3CCn4ccnc4C3)n2)nc1 | -11% | 1.68
COc1ccc2[nH]cc(C(=O)c3sc(Nc4cc(C)cc(C)c4)nc3N)c2c1 | -28% | 4.35
